# In all, about 44,000 compounds went through this assay and about 340 (0.77%) were called active. About 5% were inconclusive and are not listed. The call rests on the fitted dose curve; in most records, active means well fitted inhibition curve with a large enough effect; inconclusive means small, poorly fitted or top-dose-only effect; inactive means flat fitted curve, though single readings scatter. This is one part of the list.
# Test: Acumen qHTS Assay for Inhibitors of the mTORC1 Signaling Pathway in MEF (Tsc2-/-, p53-/-) Cells: Sytravon; further: nearly all actives have a fitted effect of over 50% in size;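 on activity change, negative = inhibition: plate controls were DMSO for no effect and rapamycin for full effect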
# Conditions: phospho-rpS6 immunofluorescence/PI, 24 h; series mostly up to 38.3 µM; activity change, negative = inhibition: at the top concentration
# Procedure, shortened: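 Read-out: phospho-S6 Alexa-488 intensity over PI intensity per well, scored as % active cells using thresholds from rapamycin (7.5 nM) and DMSO controls. Tsc2-/-, p53-/- MEFs exposed to compound for 24 h; PI cell count recorded as viability.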
# Potency means the concentration at half of the fitted maximal effect.
Compound,"activity change, negative = inhibition",Potency
COc1ccc(Nc2ncnc3c2cnn3-c2cc(Cl)ccc2C)cc1OC,inactive: -12%,
Cc1cccc(-c2nc(SCCCOc3cc(C)c(Cl)c(C)c3)n3[nH]c(=O)cc3n2)c1,inactive: -0.998%,
CCOc1ccc(OCCOCCn2c(-c3ccc(Cl)cc3)nc3ccccc3c2=O)cc1,inactive: -6.14%,
CSc1ncc(C(=O)NCc2ccc(F)cc2)c(-c2ccccc2)n1,inactive: -2.74%,
CCCCN(CC)CCCNC(=O)Cn1nc(CC)n2c(cc3sccc32)c1=O,inactive: 3.59%,
CCOC(=O)c1ccc(NC(=O)CCCn2nc(C)c3sc4ccccc4c3c2=O)cc1,inactive: 0.554%,
COc1ccc2c(c1)c1c(c(=O)n(CCc3ccccc3)c(=O)n1Cc1cccc(C)c1)n2C,inactive: -7.99%,
Cc1ccc(C(=O)OC2=C(C(=O)c3ccccc3)N(C)S(=O)(=O)c3ccccc32)cc1,inactive: 1.12%,
COC(=O)CC(=O)CSc1nc2cc(C(=O)NC(C)C)ccc2c(=O)n1CCc1ccccc1,inactive: 0%,
O=C(Cc1ccc(-c2ccccc2)cc1)NCCS(=O)(=O)N1CCN(c2cccc(Cl)c2)CC1,inactive: -5.97%,
CCN(C(=O)CSc1nnc(-c2cc3occc3n2C)n1-c1ccccc1C)c1ccccc1,inactive: -1.95%,
O=C(CN1C(=O)COc2ccc(S(=O)(=O)N3CCOCC3)cc21)NCc1ccc(Cl)cc1,inactive: -0.142%,
Cc1nc2cc(-c3ccc(Cl)cc3)nn2c(C)c1CCC(=O)N1CCN(c2ccccc2)CC1,inactive: 1.8%,
CS(=O)(=O)c1ncc(Cl)c(C(=O)N2CCN(c3cccc(Cl)c3)CC2)n1,,active: 464 nM
Cc1oc2ncn(CC(C)C)c(=O)c2c1C(=O)NCc1cccc(Cl)c1,inactive: 3.22%,
CCOc1ccc(Nc2sc(C(=O)c3ccc(F)cc3)c(N)c2S(=O)(=O)c2ccc(C)cc2)cc1,inactive: -14.2%,
CCOc1ccc(C2C(=O)N(C3CCCCC3)CC(=O)N2Cc2ccccc2OC)cc1OC (configuration not stated),inactive: 12.7%,
CC(C)Oc1ccc(CNC(=O)c2cc3cccc4c3n2CC(C)S4)cc1 (configuration not stated),inactive: -8.59%,
CCc1ccc(-c2nc3c(c(SCc4ccccc4)n2)Cc2c(CO)cnc(C)c2O3)cc1,inactive: -0.125%,
Cc1ccc(-c2onc(C)c2C)cc1S(=O)(=O)N1CCC(C)CC1,inactive: -3.2%,
Cc1ccc(Cn2c(C(=O)Nc3ccc(Cl)cc3)cc3sccc32)cc1,inactive: -10.4%,

Compound,"activity change, negative = inhibition",Potency
COc1ccc(Cl)cc1NC(=O)c1ccc(CN2C(=O)CCn3nc(C)cc32)cc1,inactive: -5.15%,
COc1cc(Cl)c(C)cc1NC(=O)CNC(=O)Cn1ccc2ccccc2c1=O,inactive: -9.92%,
COc1ccc(C2c3c(n(C)c4ccccc34)C(=O)N2CC(=O)Nc2c(C)cc(C)cc2C)cc1 (configuration not stated),inactive: 0.147%,
CC(C)Cn1cc(NC(=O)NCc2ccc(Cl)cc2)c2ccccc2c1=O,inactive: -6.76%,
CCC(=O)N1c2ccccc2CC1C(=O)NCCCN1CCN(c2cccc(Cl)c2)CC1 (configuration not stated),inactive: 0%,
Cc1ccc(C)c(NC(=O)CSc2nc(=O)n(CCN3CCOCC3)c3c2CCC3)c1,inactive: -0.493%,
Cc1c(C(=O)NCc2ccccc2Cl)sc2nc3n(c(=O)c12)CCCC3,inactive: 2.98%,
CCOc1ccccc1CNC(=O)C(CC)n1nc(C)c2c(C)n(-c3ccccc3)nc2c1=O (configuration not stated),inactive: -8.8%,
COc1ccc(Br)c2c1-c1nc(NC(=O)c3ccc(F)cc3)sc1C2,inactive: 3.13%,
CCOC(=O)N1CCC(NC(=O)c2ccc3c(c2)N(Cc2ccccc2)C(=O)c2ccccc2S3(=O)=O)CC1,inactive: -0.0534%,
Cc1ccc2c(c1)C(=O)OC(C(=O)Nc1ccc(C(=O)O)cc1)C2 (configuration not stated),inactive: -12.1%,
O=C(Nc1ccc(Cl)cc1)c1ccc2oc(=O)n(Cc3ccccc3)c2c1,inactive: -14.3%,
COc1ccc(C(=O)CN2CCN(S(=O)(=O)c3ccc(F)cc3)CC2)cc1,inactive: -6.43%,
CC(=O)N1CCC2(CC1)OC(=O)C(C)=C2C(=O)NCc1ccccc1Cl,inactive: 6.2%,
COc1ccc(-c2cn3c(n2)sc2cc(C(=O)Nc4ccc(F)cc4)ccc23)cc1,inactive: 4.86%,
Cc1cc(NC(=O)c2ccc(F)cc2)ccc1-c1cc2ccccc2oc1=O,inactive: 15%,
Cc1ccc(Cl)cc1NC(=O)c1csnn1,inactive: -3.03%,
CC(=O)OC1=C(C(C)=O)N(Cc2ccccc2)S(=O)(=O)c2ccccc21,inactive: -2.74%,
CC1CCN(C(=O)CCS(=O)(=O)c2cc3c(cc2Cl)NC(=O)CO3)CC1,inactive: -4.91%,
CCOC(=O)c1nnn(CC(=O)NC(=O)Nc2ccccc2F)c1C(=O)OCC,inactive: -9.38%,
CCCCSc1nnc2[nH]c(=O)cc(C)n12,inactive: 0.558%,

Compound,"activity change, negative = inhibition",Potency
O=C(c1cc(-c2ccc(Br)cc2)n[nH]1)N1CCN(S(=O)(=O)c2ccc(Br)s2)CC1,inactive: -21.2%,
CCN(CC)S(=O)(=O)c1ccc(NC(=O)c2nn(C)c3c2CSc2ccccc2-3)cc1,inactive: 2.51%,
Cc1cccc(CC(=O)NC2CC(=O)N(c3ccc4c(c3)OCCO4)C2)c1 (configuration not stated),inactive: 1.7%,
Fc1ccc(Nc2nc(SCc3cccc(F)c3)nc3ccccc23)cc1,inactive: 1.66%,
Cc1ccccc1CSc1ncc(Cl)c(C(=O)NCc2ccccc2)n1,inactive: -0.84%,
CCOC(=O)c1ccc(N2C(=O)c3[nH]nc(-c4ccc(C)cc4)c3C2c2ccc(O)cc2)cc1 (configuration not stated),inactive: -1.8%,
CCC(=O)N1CCc2cc(Br)cc(S(=O)(=O)CCC(=O)Nc3ccc(CC)cc3)c21,inactive: -1.05%,
Cc1cc(Br)cc(C)c1NC(=O)c1cnc2ccccn2c1=O,inactive: -0.951%,
COc1ccc(NC(=O)C(NC(=O)Cc2cccs2)c2ccc(OC)cc2)cc1 (configuration not stated),inactive: -9.22%,
Cn1c2c(c(=O)n(C)c1=O)C(c1cccc(O)c1)CC(=O)N2 (configuration not stated),inactive: 7.17%,
COc1cccc(NS(=O)(=O)c2ccc3[nH]c4c(c3c2)CCCCCC4)c1,inactive: -27.5%,
CCc1ccc(CN(C(=O)c2ccc(OC)cc2)C2CCS(=O)(=O)C2)cc1 (configuration not stated),inactive: -0.557%,
CCOC(=O)c1ccc(NC(=O)CC2Nc3cccc4cccc(c34)NC2=O)cc1 (configuration not stated),inactive: -8.04%,
Cc1noc(C)c1S(=O)(=O)Nc1ccc(C(=O)Nc2ccc(C(C)C)cc2)cc1,inactive: -1.68%,
COc1ccc(-c2onc(C)c2C)cc1S(=O)(=O)N1CCc2ccccc21,inactive: -16%,
COc1cc2c(cc1NC(=O)COc1ccc(Br)c(C)c1)oc1ccccc12,inactive: -2.19%,
CCC12CN3CC(CC)(CN(C1)C3c1cccc(OC)c1O)C2=O (configuration not stated),inactive: 1.21%,
Cc1ccc2nc(N(Cc3cccnc3)C(=O)c3ccco3)sc2c1,inactive: 1.15%,
COc1ccc(-c2c(C)c3ccc(O)c(CN4CCCCC4)c3oc2=O)cc1OC,inactive: 6.59%,
CCc1ccc(-n2c(SCc3nc(-c4cc(OC)ccc4OC)no3)nnc2-c2ccccc2)cc1,inactive: -4.12%,

# From PubChem BioAssay AID493208 (National Center for Advancing Translational Sciences (NCATS), 2011)
